Reference: the supplement of paper PMC3334620
Whole data set: some 33,000 sequences, median “E-score (-0.5 to 0.5)” near -0.012, cut for the highest 2% near 0.29. Some of the results follow.

Molecular target: T1, Ybr033w (UniProt P38073)
T1 sequence: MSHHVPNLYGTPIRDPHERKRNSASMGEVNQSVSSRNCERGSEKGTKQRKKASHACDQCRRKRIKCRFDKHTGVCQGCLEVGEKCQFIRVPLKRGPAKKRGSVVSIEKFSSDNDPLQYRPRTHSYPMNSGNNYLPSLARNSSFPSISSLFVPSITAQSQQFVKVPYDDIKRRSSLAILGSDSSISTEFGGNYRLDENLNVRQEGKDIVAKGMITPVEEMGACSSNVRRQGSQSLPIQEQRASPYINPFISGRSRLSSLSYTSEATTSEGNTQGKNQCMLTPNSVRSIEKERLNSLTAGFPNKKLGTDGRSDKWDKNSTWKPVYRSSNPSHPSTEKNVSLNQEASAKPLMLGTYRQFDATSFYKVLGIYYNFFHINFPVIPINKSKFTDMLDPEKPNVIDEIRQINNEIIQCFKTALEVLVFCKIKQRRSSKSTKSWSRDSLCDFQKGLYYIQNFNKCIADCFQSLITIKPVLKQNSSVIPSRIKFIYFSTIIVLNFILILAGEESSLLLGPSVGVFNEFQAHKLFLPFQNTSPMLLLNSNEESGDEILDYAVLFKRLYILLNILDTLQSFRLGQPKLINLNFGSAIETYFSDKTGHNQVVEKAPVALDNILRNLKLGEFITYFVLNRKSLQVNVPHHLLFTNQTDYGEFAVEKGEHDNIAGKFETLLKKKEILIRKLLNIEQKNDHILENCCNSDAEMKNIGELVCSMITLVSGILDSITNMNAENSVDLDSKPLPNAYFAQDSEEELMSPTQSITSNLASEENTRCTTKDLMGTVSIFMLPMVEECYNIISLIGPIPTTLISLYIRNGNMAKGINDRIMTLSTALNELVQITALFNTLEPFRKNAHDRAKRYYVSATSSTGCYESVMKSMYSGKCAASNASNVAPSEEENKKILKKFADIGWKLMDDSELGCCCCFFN
Assay: PBM E-score (8-mer binding enrichment) (E-score (-0.5 to 0.5)); higher = stronger / more preferred TF binding; most listed sequences are background and not binding sites
Conditions: protein concentration: 200 nM; construct: GST-full length
How it was run: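 For each ungapped eight-base word taken together with its reverse complement, the Universal PBM Analysis Suite assigned an E-score. Binding data came from GST-tagged yeast transcription factors, applied at about 100-200 nM, on universal all-10-mer Agilent arrays made double-stranded by primer extension. Fluorescent anti-GST marked bound protein, and scans were normalised with masliner.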

Sequence	PBM E-score
AATACATG	0.222
TGTATTAA	0.272
ACGACCAG	-0.158
CGAAACTC	0.0214
ATAGACTG	-0.0524
AGCAGGAA	0.0849
AAGGATCT	-0.0153
CCGGAACG	-0.0381
CTGTGATA	0.0572
ATCCGAAT	0.257
CGTCGTCA	-0.143
TCGAACCA	-0.0626
ACCGATTC	-0.0871
GGCGGTTA	-0.122
GCTCGTAC	-0.0573
GCAAGAGA	-0.134
AGTCAGGC	-0.0549
GAATCATC	0.116
CATCTGAA	0.18
ATACTATC	0.109
GCGTGCCA	-0.302
GATTCCAA	0.0979
CCCAGGAC	-0.354
CGTGTAAG	0.147
TATGACCA	0.0434

Sequence	PBM E-score
AATACTAC	0.223
ACGCTATC	-0.0616
AGTAGACG	0.0471
GAAGTGTA	-0.166
CCTCCGTC	-0.188
AACTGGAG	0.0172
CCGGTACC	-0.158
AACGTATC	-0.0815
ATAGAAAC	0.206
AGGTCTGC	-0.104
AAGAGCTT	0.0991
GTAACGGA	0.0744
GTAAGGAC	-0.0859
ACAGGACG	-0.166
GTTTAAAC	0.233
AACTTCGC	0.043
CTGCGCCA	-0.0965
ATAATGAC	-0.0726
AGGTTGAG	-0.167
TGTCCGAA	0.0982
AACCTCTA	-0.0942
CTGTTTTC	0.032
ACAGGAGC	-0.0855
GTGCGGTA	-0.0389
CCAGCAGG	-0.311

Sequence	PBM E-score
AGTAGAGC	-0.233
AGCTCAAT	0.06
CTTACTCA	0.071
GATGAAGA	-0.164
AGAGTGGC	-0.198
GGCTCCAA	-0.0151
ATCGCATC	-0.087
GAGCCCGC	-0.32
AGTCTGTA	-0.176
CAGTCGAC	0.106
ATAGACCC	0.00396
ACCCATGA	-0.0395
GCATACCA	-0.116
ACCCCCGA	-0.193
TGGATCAA	0.377
ACGGATGC	-0.0974
CCAAATCA	0.0506
CACGGAGC	-0.13
GGGAACTA	-0.0908
GGACGTAA	-0.0697
CGGGAAAG	-0.211
ACGGTCAT	-0.0709
CTTCTGTC	0.0598
CTCTGACC	-0.237
CGCATTTC	-0.0058

Sequence	PBM E-score
ACATGTAC	-0.0188
GCTCGTCA	-0.162
GGCTAACC	-0.21
GAAGAAAC	0.0906
CTAATGTA	0.127
ACAGCTAC	-0.0634
AAACTAAA	0.205
TAACCACA	0.0948
GTAGGTAA	0.19
ATAACGCA	0.0602
CCGGAAAG	-0.0245
CATCGCTA	-0.00495
TGTAAACA	0.181
ATGATGGA	0.0661
ATCGATCG	0.0389
AATAGCTC	-0.0681
CGACACGC	-0.0489
GCCCCTCA	-0.405
GGTCATAC	-0.208
AACGTGAA	0.018
CTTATGGA	-0.0514
ATCAGCGA	0.0254
CTTACTGC	-0.0255
GTTATCAA	0.144
CATACCCC	-0.193

Sequence	PBM E-score
ACCGCGAA	-0.0164
GCGACGTA	0.0221
CCAATAAC	0.132
ACGGAACA	0.298
CAAGCTTC	-0.0203
ACCGGCTG	-0.197
AGTTCTGC	-0.138
AAACCTCC	-0.0391
ACTAATAA	0.276
CGCGTACG	0.00707
ATGGGCTC	-0.25
ACTCCGAT	0.074
CGATCTAG	-0.184
AGACCTTG	-0.0565
CGTGAGTC	-0.181
CGCCCATC	-0.166
GCTACGGA	-0.0825
CAACACGC	-0.0833
AGACTTCG	-0.198
ACCCCCAA	-0.22
ACGCCTAA	-0.0703
AAAGCGCG	-0.0935
AAGTCTGC	-0.166
GCAATATA	0.123
ATTTCCGA	0.247

Sequence	PBM E-score
TGTTTCAA	0.216
CTAGACCC	-0.194
AACAAAGA	0.174
AAACAGCA	0.0447
CTGTGCGA	-0.0596
CTGGAGTA	0.0746
CAGGCTGG	-0.177
CTAATCCC	-0.0661
AAGCACAC	0.0146
CTATCGGA	0.0825
ATCCCGGC	-0.0706
GTACAGTA	0.021
AACAGTGA	-0.0153
TTACGCAA	0.257
CAGAAAGG	-0.0904
CCCCCGCA	-0.212
AGTCACAG	0.0385
CTGTGTTC	0.0163
AACGCATA	0.0627
ACCGACGG	-0.139
CGATGGCA	-0.0591
CGCAATAG	0.0121
TCCGAAGA	0.0524
CAATACCC	-0.0197
CGGAGAAC	-0.02

Sequence	PBM E-score
CAGGGAAG	-0.194
TACGCTCA	0.0311
GCGTCCAA	-0.0752
GTGATAAA	0.102
CTTCAATA	0.113
TAGCACAA	0.0785
TGGCGAAA	0.0143
CGTCTCAG	-0.138
AAAGATCG	-0.0193
ACCTCTCC	-0.159
CTTAATAC	0.136
GAAGGGAA	-0.074
AACTCGAG	0.0409
GAATTTGA	0.214
GAGAATCC	0.0118
TAAGACTA	-0.0167
CAGATTAC	0.0918
ACGATGTA	0.141
CAGGGTCC	-0.236
CGATGATA	0.0954
CATAGCTC	-0.153
CGAGCGTA	-0.0477
